Data: patent US20190309060A1 (PHILOGEN S P A, published 2019)

How the values were obtained:
[1] = target: T1, human cadherin-17 (as coated on the CM5 chip / used in the affinity ELISA) (human, UniProt Q12864 30-245, limits assumed); assay: BiaCore (SPR), monomeric scFv at 1000, 350, 175 and 87 nM over a human cadherin-17 coated CM5 chip
T1 construct: also called human cadherin-17 coated chip
T1 sequence: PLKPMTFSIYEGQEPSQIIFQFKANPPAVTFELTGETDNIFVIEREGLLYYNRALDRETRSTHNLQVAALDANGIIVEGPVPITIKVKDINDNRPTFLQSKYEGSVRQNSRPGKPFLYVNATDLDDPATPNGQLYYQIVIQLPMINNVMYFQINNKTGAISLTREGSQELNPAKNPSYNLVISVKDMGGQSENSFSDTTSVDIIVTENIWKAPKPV
Method: (§1) For the analysis of the AV17.3 antibody, size-exclusion chromatography was performed on an ÄKTA FPLC system using the Superdex 75 Increase column (Amersham Biosciences). Surface plasmon resonance experiments affinity measurements were performed by BIAcore X100 instrument with purified scFvs. Human Cadherin-17 or mouse Cadherin-17 was immobilized on a CM5 sensor chip (GE Healthcare) and monomeric scFv (AV17.3) were injected as serial-dilution. The concentrations are reported on FIG. 2D and FIG. 2E.
(§2) A more precise affinity constant determination was performed by BiaCore analysis with the monomeric scFv(AV17) obtained by size exclusion chromatography (SEC-75, Amersham Biosciences) on a human cadherin-17 coated chip. […] For the AV17.3 antibody, the affinity constant determination was performed by BiaCore analysis with the monomeric scFv(AV17.3) obtained by size exclusion chromatography (SEC-75i, Amersham Biosciences) on a human cadherin-17 coated chip and a mouse cadherin-17 coated chip.

[2] = target: T2, mouse cadherin-17 (as coated on the CM5 chip) (mouse, UniProt Q9R100 29-244, limits assumed); assay: BiaCore (SPR), monomeric scFv at 1200, 600, 300 and 150 nM over a mouse cadherin-17 coated CM5 chip
T2 construct: also called murine Cadherin-17
T2 sequence: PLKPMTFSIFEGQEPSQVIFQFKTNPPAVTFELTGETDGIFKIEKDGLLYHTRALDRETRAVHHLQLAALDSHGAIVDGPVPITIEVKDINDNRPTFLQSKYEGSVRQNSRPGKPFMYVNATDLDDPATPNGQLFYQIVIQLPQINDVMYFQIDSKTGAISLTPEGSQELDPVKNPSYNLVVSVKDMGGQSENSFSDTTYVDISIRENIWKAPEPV
Method: as §1, §2

avidin [3] = target: T3, avidin (UniProt P02701 25-152); assay: ELISA, avidin-coated Maxisorp wells without galectin-2
T3 construct: Negative control surface of the ELISAs; also called avidin-coated wells; wells coated with avidin alone
T3 sequence (looked up): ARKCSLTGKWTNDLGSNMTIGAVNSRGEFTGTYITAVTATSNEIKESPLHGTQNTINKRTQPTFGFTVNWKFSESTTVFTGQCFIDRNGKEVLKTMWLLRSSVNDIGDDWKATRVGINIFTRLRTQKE

[4] = target: T4, human galectin-2, natively expressed (LS174T cells; human colon biopsy sections) (human, UniProt P05162 1-132); assay: immunofluorescence of methanol-permeabilized LS174T cells; detection with 9E10 and anti-mouse IgG Alexa594
T4 construct: Cytoplasmic protein in fixed, methanol-permeabilized LS174T cells, and native protein in frozen colon sections; also called natively expressed galectin-2 antigen
T4 sequence: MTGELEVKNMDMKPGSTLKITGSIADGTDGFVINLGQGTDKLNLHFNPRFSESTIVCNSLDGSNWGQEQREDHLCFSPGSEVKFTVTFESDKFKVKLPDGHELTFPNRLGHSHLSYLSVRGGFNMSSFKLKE
Method: Methanol-permeabilized LS174T cells were stained with the anti-galectin-2 scFv antibody FF06. Antibody binding was detected using the anti-myc tag antibody 9E10 and an anti-mouse IgG Alexa594 antibody. Nuclei were stained with DAPI. To confirm the specificity of staining, cells were treated with an irrelevant scFv in combination with the detection antibodies. Pictures were taken using a 40× objective.
(i) Immunofluorescent staining was performed on the LS174T human colorectal adenocarcinoma cell line. LS174T cells were seeded onto 12 mm diameter glass coverslips at 30 000 cells/well. After 72 hours, cells were fixed in 2%-PFA at room temperature for 10 minutes. Coverslips were then washed with PBS and cells were permeabilized using 90% ice-cold methanol at −20° C. for 10 min. After fixation and permeabilization, coverslips were washed and blocked with 20% v/v fetal bovine serum in PBS for 30 min. After washing with PBS, scFvs were added at a concentration of 20 μg/mL in 3% w/v BSA/PBS solution containing the anti-myc tag antibody at a final concentration of 3 μg/ml, and incubated for 2 hours. Detection of bound scFvs was performed by 1 hour incubation with a goat anti-mouse Alexa594 antibody (Molecular probes) diluted 1:500 in 3% BSA/PBS. […] Coverslips were mounted with fluorescent mounting medium (Dako) and analyzed with an Axioskope2 mot plus microscope (Zeiss), using the 40× objective.

[5] = target: T1, human cadherin-17 (as coated on the CM5 …); assay: BiaCore (SPR), monomeric scFv over a human cadherin-17 coated CM5 chip
Method: For the analysis of the AV17 antibody, size-exclusion chromatography was performed on an ÄKTA FPLC system using a Superdex 75 column (Amersham Biosciences). Surface plasmon resonance affinity measurements were performed using a Biacore S200 instrument and purified scFvs. Monomeric scFv were injected as a serial-dilution, with concentrations ranging from 950 nM to 9.5 nM.
as §2

[6] = target: T5, recombinant human Agr2 (residues 41-175 of human anterior gradient protein 2 homolog) (human, UniProt O95994 41-175, surface lysine residues biotinylated with NHS-LC-biotin (as used in the ELISA; not stated for the CM5 chip)); assay: SPR (BIAcore T3000), human Agr2 on CM5 chip, scFv injected
T5 construct: Expressed in a BL21-based E. coli strain; also called biotinylated Agr2; recombinant Agr2 antigen
T5 sequence: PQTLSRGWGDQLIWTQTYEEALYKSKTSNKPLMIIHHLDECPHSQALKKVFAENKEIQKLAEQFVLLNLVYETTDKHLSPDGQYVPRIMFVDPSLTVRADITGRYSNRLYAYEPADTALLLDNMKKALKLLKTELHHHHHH
Method: Binding of the purified ScFvs to the recombinant human Agr2 antigen was confirmed by surface plasmon resonance experiments using a BIAcore T3000 instrument (GE Healthcare). Human Agr2 was immobilized on a CM5 sensor chip (GE Healthcare), and serial dilutions of the purified ScFv antibodies at concentrations between 3400 nM and 213 nM were injected over the surface.

avidin [7] = target: T3, avidin; assay: ELISA on avidin-coated wells without Agr2; detection with 9E10 and anti-murine Fc-HRP
Method: Various concentrations of the scFv antibody were incubated with biotinylated Agr2 (residues 41-175 of recombinant human Agr2) that had been immobilized on avidin-coated maxisorp wells. Bound scFv antibody was detected using the anti-myc antibody 9E10 and an HRP-conjugated anti-murine Fc antibody. The specificity of the antibody-antigen interaction was confirmed by incubating the scFv antibodies with avidin-coated wells as a negative control. […] Varying concentrations of the scFv (CPR02) antibody were injected over a CM5 chip surface coated with immobilized human Agr2. The BiaCore analysis confirms that scFv (CPR02) antibody binds to human Agr2.
Binding of the purified scFvs to the recombinant Agr2 antigen (consisting of amino acid residues 41-175 of Agr2) was confirmed by ELISA. Maxisorp plates (Nunc) were incubated with avidin at 50 μg/mL in PBS for 6 hours at room temperature. Unbound avidin was removed by washing with PBS and the wells were incubated with biotinylated Agr2 at a final concentration of 0.2 μM overnight at 4° C. […] Bound scFvs were detected using a 1:1000 dilution of HRP-conjugated anti-murine Fc (Sigma Aldrich) and the signal was developed using BM Blue POD substrate (Roche). The ELISA output was recorded at a wavelength of 450 nm, subtracting absorbance at 620 nm as a reference baseline.

[8] = target: T6, recombinant human galectin-4 (Uniprot P56470, residues 1-323) (human, UniProt P56470 1-323, surface lysine residues biotinylated with NHS-LC-biotin); assay: SPR (BiaCore T3000), galectin-4 on CM5 chip, scFv injected
T6 construct: Expressed in CHO.S cells and immobilized on a CM5 chip for BiaCore; also called biotinylated galectin-4; recombinant galectin-4 antigen
T6 sequence: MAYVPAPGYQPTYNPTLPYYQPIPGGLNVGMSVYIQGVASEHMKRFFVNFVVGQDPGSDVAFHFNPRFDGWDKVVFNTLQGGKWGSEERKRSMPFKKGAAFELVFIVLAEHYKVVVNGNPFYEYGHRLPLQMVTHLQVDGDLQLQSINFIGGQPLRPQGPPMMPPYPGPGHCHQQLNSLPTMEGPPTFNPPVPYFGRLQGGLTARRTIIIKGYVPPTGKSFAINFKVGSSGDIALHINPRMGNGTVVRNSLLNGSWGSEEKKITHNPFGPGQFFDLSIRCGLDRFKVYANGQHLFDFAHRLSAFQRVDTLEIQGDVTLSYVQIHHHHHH
Method: Binding of the purified scFvs to the recombinant galectin-4 antigen was confirmed by surface plasmon resonance experiments using a BiaCore T3000 instrument (GE Healthcare). Human galectin-4 was immobilized on CM5 sensor chip (GE Healthcare), and serial dilutions at concentrations between 500 nM and 15.6 nM of the purified scFv antibodies were injected over the surface.

B1: scFv(AV17.3) (scFv)
scFv: [in this place about 100 residues]MSIRGFDYWGQGTLVTVSSGGGGSGGGGSGGGGSSELTQDPAVSVALGQTVRITCQGDSLRSYYASWYQQKPGQAPVLVIYGKNNRPSGIPDRFSGSSSGNTASLTITGAQAEDEADYYCNSSRGVRPLVVFGGGTKLTVLG
notes: The monomeric SEC fraction was used for BiaCore; also called AV17.3 antibody; monomeric scFv(AV17.3)
B1 was tested, and the koff [1] was 0.125 s⁻¹, the kon [1] was 149000 M⁻¹ s⁻¹ and the koff [2] was 0.154 s⁻¹. For the same binder, the kon [2] was 240000 M⁻¹ s⁻¹.

B2: scFv(FF06) (scFv)
scFv: [in this place about 100 residues]TRPFRVFDYWGQGTLVTVSSGGGGSGGGGSGGGGSSELTQDPAVSVALGQTVRITCQGDSLRSYYASWYQQKPGQAPVLVIYGKNNRPSGIPDRFSGSSSGNTASLTITGAQAEDEADYYCNSSRSRRPAVVFGGGTKLTVLG
notes: Detected with the anti-myc antibody 9E10; also called anti-galectin-2 scFv antibody FF06
B2: no binding (tested: scFv dilutions between 500 nM and 4 nM) (avidin [3]); binds [4].

B3: scFv(AV17) (scFv)
scFv: [in this place about 100 residues]RPVMFDYWGQGTLVTVSSGGGGSGGGGSGGGGSSELTQDPAVSVALGQTVRITCQGDSLRSYYASWYQQKPGQAPVLVIYGKNNRPSGIPDRFSGSSSGNTASLTITGAQAEDEADYYCNSSLPSPQVVVFGGGTKLTVLG
notes: The monomeric SEC fraction was used for BiaCore; also called anti-cadherin-17 scFv(AV17); monomeric scFv(AV17)
In the case of B3, the koff [5] is reported as 0.127 s⁻¹ and the kon [5] is reported as 95100 M⁻¹ s⁻¹.

B4: scFv(CPR02) (scFv)
scFv: [in this place about 100 residues]GAGPTFDYWGQGTLVTVSSGGGGSGGGGSGGGGSSELTQDPAVSVALGQTVRITCQGDSLRSYYASWYQQKPGQAPVLVIYGKNNRPSGIPDRFSGSSSGNTASLTITGAQAEDEADYYCNSSPPTRAVVVFGGGTKLTVLG
notes: Detected with the anti-myc antibody 9E10; also called anti-Agr2 scFv antibody; monomeric scFv(CPR02)
With B4 the Kd [6] was 460 nM and the binding result (avidin [7]) was “no binding (tested: 1 µM)”.

B5: scFv(FF04) (scFv)
scFv: [in this place about 100 residues]MVWFELFDYWGQGTLVTVSSGGGGSGGGGSGGGGEIVLTQSPGTLSLSPGERATLSCRASQSVSSSYLAWYQQKPGQAPRLLIYGASSRATGIPDRFSGSGSGTDFTLTISRLEPEDFAVYYCQQARGMPLTFGQGTKVEIK
notes: Detected with the anti-myc antibody 9E10; also called anti-galectin-4 scFv antibody FF04
Binder B5 has a Kd [8] of 244 nM.

B6: scFv(FF05) (scFv)
scFv: [in this place about 100 residues]TRRLKFDYWGQGTLVTVSSGGGGSGGGGSGGGGSSELTQDPAVSVALGQTVRITCQGDSLRSYYASWYQQKPGQAPVLVIYGKNNRPSGIPDRFSGSSSGNTASLTITGAQAEDEADYYCNSSAWNYPIVVFGGGTKLTVLG
notes: Detected with the anti-myc antibody 9E10; also called anti-galectin-4 scFv antibody FF05
B6 was tested, and the Kd [8] was 2000 nM.
